Results reported in publication PMC4336329 (PLoS ONE, 2015).
About 2,200 (0.71%) of roughly 310,000 compounds showed an effect of 50% or more. The effect is printed as a negative number. The list shows a part of the results.

Target: human ether-à-go-go-related gene (hERG) potassium channel (human, UniProt Q12809)
Experiment: primary screen, population patch clamp on CHO cells stably expressing hERG

Sequence of human ether-à-go-go-related gene (hERG) potassium channel (Q12809 whole entry, looked up): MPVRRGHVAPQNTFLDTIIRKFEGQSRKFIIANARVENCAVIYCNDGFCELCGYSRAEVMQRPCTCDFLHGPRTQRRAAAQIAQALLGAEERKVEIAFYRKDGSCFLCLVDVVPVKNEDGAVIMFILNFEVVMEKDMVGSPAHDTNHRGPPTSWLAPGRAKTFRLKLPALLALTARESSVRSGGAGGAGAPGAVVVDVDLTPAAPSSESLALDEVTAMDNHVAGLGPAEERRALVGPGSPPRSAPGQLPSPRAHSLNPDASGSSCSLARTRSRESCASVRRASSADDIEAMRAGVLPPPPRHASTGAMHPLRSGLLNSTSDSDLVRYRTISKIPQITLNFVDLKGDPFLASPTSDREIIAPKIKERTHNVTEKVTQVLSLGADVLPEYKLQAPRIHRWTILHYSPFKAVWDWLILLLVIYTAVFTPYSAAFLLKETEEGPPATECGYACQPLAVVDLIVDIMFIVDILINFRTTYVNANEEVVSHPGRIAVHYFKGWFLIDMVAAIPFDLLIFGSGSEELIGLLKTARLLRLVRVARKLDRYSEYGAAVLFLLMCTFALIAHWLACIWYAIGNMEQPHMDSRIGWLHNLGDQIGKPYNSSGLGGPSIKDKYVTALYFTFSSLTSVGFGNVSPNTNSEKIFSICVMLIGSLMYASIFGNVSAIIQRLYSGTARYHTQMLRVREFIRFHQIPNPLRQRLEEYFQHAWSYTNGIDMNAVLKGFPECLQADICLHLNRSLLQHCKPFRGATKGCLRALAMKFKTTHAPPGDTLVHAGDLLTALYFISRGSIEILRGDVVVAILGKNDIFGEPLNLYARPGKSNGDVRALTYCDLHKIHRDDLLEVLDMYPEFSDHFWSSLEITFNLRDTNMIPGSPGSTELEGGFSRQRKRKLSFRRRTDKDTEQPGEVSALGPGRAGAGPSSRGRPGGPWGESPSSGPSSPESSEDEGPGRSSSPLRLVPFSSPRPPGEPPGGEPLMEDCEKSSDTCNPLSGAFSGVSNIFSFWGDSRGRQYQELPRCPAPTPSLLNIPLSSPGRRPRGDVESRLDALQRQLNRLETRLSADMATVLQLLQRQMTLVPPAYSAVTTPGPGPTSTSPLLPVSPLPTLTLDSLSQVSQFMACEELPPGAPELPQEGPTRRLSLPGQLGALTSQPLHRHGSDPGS

Row | Compound | hERG current change (%, negative = inhibition) at 1uM [%]
1 | Cc1ccsc1C(=O)NCC(C)(C)N1CCOCC1 | 4.07
2 | C=CCOC(=O)c1ccccc1N | 12.9
3 | C[C@@H]1C=C(C(=O)N2CCOCC2)O[C@H](OCc2ccc(CO)cc2)C1 | 10.9
4 | Cc1nc2sc(C(c3ccccc3)N3CCOCC3)c(O)n2n1 (stereo not shown) | 16.2
5 | O=C(Nc1ncc2c(n1)-c1ccccc1OC2)c1cccc([N+](=O)[O-])c1 | 5.65
6 | Brc1ccc(-c2nc(-c3cccnc3)no2)o1 | 6.88
7 | COc1ccc(C(C)=O)cc1CSc1nnnn1-c1ccc(O)cc1 | 5.32
8 | Cc1ccc(-n2c(O)c(C=NC3CCS(=O)(=O)C3)c3ccccc3c2=O)cc1C (stereo not shown) | 4.45
9 | CCOP(=O)(OCC)C(O)c1ccc(OC)cc1 (stereo not shown) | 12
10 | CCOc1ccc(C(C)=O)cc1CSc1nnc(-c2ccncc2)n1CCOC | 2.2
11 | CCOc1ccc(NC(=O)COC(=O)CCCc2c[nH]c3ccccc23)cc1 | -7.5
12 | N#CC1(C#N)CC(C=O)=C(N)C1(C#N)CC(=O)c1ccc(F)cc1 (stereo not shown) | 3.15
13 | Cc1cc(Cl)c(S(=O)(=O)NCc2ccncc2)cc1OCC(N)=O | 7.48
14 | CC(SCc1ccc(C(=O)O)o1)c1ccc(C(=O)O)o1 (stereo not shown) | 16.7
15 | CC(=O)Nc1ccc(NC(=O)C(C)n2nc(C)c([N+](=O)[O-])c2C)cc1 (stereo not shown) | 12.4
16 | CCOc1ccc(-n2c(SC)nc3c(c2=O)SCC3)cc1 | 22.9
17 | Cc1cc(OC(=O)c2cccs2)c2c3c(c(=O)oc2c1)CCCC3 | 15.3
18 | Fc1ccc(-n2c(Cc3ccccc3)nnc2SCc2nc(-c3cccs3)no2)cc1 | -0.191
19 | COC(=O)c1cc(OC)c(OC)cc1NCC(=O)Nc1ccc(OC)c(OC)c1 | 13.5
20 | CCN(CC)c1nc(C)c(C(C)=O)cc1C#N | 5.88

Row | Compound | hERG current change (%, negative = inhibition) at 1uM [%]
21 | COc1ccc2c(c1)C(C1=C(O)CC(C)(C)CC1=O)C1=C(CC(C)(C)CC1=O)O2 (stereo not shown) | 2.5
22 | CC1CCCC(C)N1C(=O)c1cccc2c1-c1ccccc1/C2=N/O (stereo not shown) | 15.1
23 | CCNC(=O)NC(=O)CSc1ccccc1F | 9.56
24 | CC(C)(C)C1=CC=C(C(C)(C)C)C(=O)C1=O | 7.14
25 | COc1ccc(N2CCN(C3CCCN(Cc4cccc(C(C)=O)c4)C3)CC2)cc1 (stereo not shown) | 1.73
26 | N=c1c(C(=O)NCc2ccco2)cc2c(=O)n3ccccc3nc2n1CC1CCCO1 (stereo not shown) | -84.3
27 | Clc1ccc(-c2noc(CCCc3ccccc3)n2)cc1 | 16.1
28 | CCOc1ccc2ncc(C(=O)c3ccc(OC)cc3)c(N3CCN(CC)CC3)c2c1 | -66
29 | CCC(NS(=O)(=O)c1cn(C)nc1C)c1ccccc1 (stereo not shown) | 17.9
30 | O=C1CCCC2=C1Sc1ccccc1N2 | 14.4
31 | Cc1n[nH]c(=O)c2c(NC(=O)CSc3nn(-c4ccc(F)cc4)c(=S)s3)oc(C)c12 | 5.51
32 | Cc1ccc(S(=O)(=O)N2CCCCC2)cc1NC(=O)CCOc1ccccc1 | 5.97
33 | Cc1cc(NS(=O)(=O)c2ccc(NC(=O)/C=C/c3ccc(Br)cc3)cc2)no1 | 17.1
34 | COc1ccc(C(C)=O)cc1CC(=O)N(Cc1ccccc1)c1ccccc1 | 0.862
35 | CCC1CN(C(=O)N2CCC(C(=O)Nc3ccccc3OC)CC2)c2ccccc2O1 (stereo not shown) | 26
36 | O=C(CCc1ccccc1)N/N=C\c1cc2c(cc1Br)OCO2 | 16
37 | O=c1[nH]cc([N+](=O)[O-])cc1Br | 2.99
38 | Nc1cccc2cc(-c3ccccc3)oc12 | -9.47
39 | CC(=O)c1sc(-c2ccccn2)nc1C | 14.2
40 | CCc1cccc(CC)c1NC(=O)C1CN(S(=O)(=O)c2ccccc2)CCN1S(=O)(=O)c1ccccc1 (stereo not shown) | 19.2

Row | Compound | hERG current change (%, negative = inhibition) at 1uM [%]
41 | CC(=O)c1cc(-c2ccccc2)n(CC(=O)N2CCCC2)c1C | 3.14
42 | CCOc1ccc(OCc2cccc(C(=O)N3CCOCC3)c2)cc1 | 16.3
43 | O=C(O)C(Br)CBr (stereo not shown) | 16.5
44 | Nc1nnc(SCC(=O)Nc2sc3c(c2C(=O)c2ccccc2)CCCC3)s1 | 1.07
45 | CN1CCN(CCCNC(=O)c2ccc(NC(=O)C3=CSCCO3)cc2)CC1 | 10.4
46 | CC(OC(=O)/C=C/c1ccccc1)C(=O)Nc1ccc2c(c1)OCCO2 (stereo not shown) | 12.4
47 | CC(CSc1nc2ccccc2s1)Cn1c(N2CCCC2)nc2c1c(=O)[nH]c(=O)n2C (stereo not shown) | -4.43
48 | O=C(CSc1ncnc2c1oc1ccccc12)Nc1nc2ccccc2s1 | 13.1
49 | COc1cc(CCC(=O)NCc2ccc3c(c2)OCO3)cc(OC)c1OC | 6.33
50 | Cc1nonc1C1CCCN1Cc1cn[nH]c1-c1ccc(-c2ccccc2)cc1 (stereo not shown) | -26.6
51 | CC1CCCCN1C(=O)CSc1nnc(-c2cccnc2)n1C1CCCCC1 (stereo not shown) | -9.3
52 | C/C(=N\Nc1ccc(C(F)(F)F)cn1)c1ccncc1 | 9.26
53 | CC(=O)Nc1nc(C(=O)Nc2c(C)n[nH]c2C)cs1 | 0.673
54 | Cc1ccc(N(CC(=O)NC2CCCCC2)C(=O)CCC(=O)Nc2nccs2)cc1 | 2.02
55 | O=c1c2ccccc2sn1-c1cc(S(=O)(=O)N2CCOCC2)ccc1N1CCOCC1 | 15.5
56 | Cc1cccc2cc(CN(CCCO)C(=O)Nc3ccccc3Cl)c(=O)[nH]c12 | 7.42
57 | COc1ccc2c(C)c(CC(=O)N3C[C@H]4C[C@@H](C3)c3cccc(=O)n3C4)c(=O)oc2c1 | -8.73
58 | COc1ccc(/C=N/Nc2cn[nH]c(=O)c2Cl)cc1 | 13.3
